Test results as given in patent US20090311253A1 (AbbVie / Abbott, published 2009).

Experiments:
Recombinant Human IL-13 [1] = target: T1, Recombinant Human IL-13 (human, UniProt P35225 part only, limits assumed); assay: direct bind ELISA
Experimental: Enzyme Linked Immunosorbent Assays to screen for antibodies that bind a desired target antigen were performed as follows. High bind ELISA plates (Corning Costar # 3369, Acton, Mass.) were coated with 100 μL/well of 10 μg/ml of desired target antigen (R&D Systems, Minneapolis, Minn.) or desired target antigen extra-cellular domain/FC fusion protein (R&D Systems, Minneapolis, Minn.) or monoclonal mouse anti-polyhistidine antibody (R&D Systems # MAB050, Minneapolis, Minn.) in phosphate buffered saline (10×PBS, Abbott Bioresearch Center, Media Prep# MPS-073, Worcester, Mass.) overnight at 4° C. Plates were washed four times with PBS containing 0.02% Tween 20. Plates were blocked by the addition of 300 μL/well blocking solution (non-fat dry milk powder, various retail suppliers, diluted to 2% in PBS) for ½ hour at room temperature. Plates were washed four times after blocking with PBS containing 0.02% Tween 20.
Plates were washed 4 times with PBS containing 0.02% Tween 20.
One hundred microliters of enhanced TMB solution (Neogen Corp. #308177, K Blue, Lexington, Ky.) was added to each well and incubated for 10 minutes at room temperature. The reaction was stopped by the addition of 50 μL 1N sulphuric acid. Plates were read spectrophotometrically at a wavelength of 450 nm.

Recombinant Human IL-13 [2] = target: T1, Recombinant Human IL-13; assay: Biacore SPR
Experimental: The BIACORE assay (Biacore, Inc, Piscataway, N.J.) determines the affinity of antibodies or DVD-Ig with kinetic measurements of on-rate and off-rate constants. Binding of antibodies or DVD-Ig to a target antigen (for example, a purified recombinant target antigen) is determined by surface plasmon resonance-based measurements with a BiacoreR 1000 or 3000 instrument (Biacore® AB, Uppsala, Sweden) using running HBS-EP (10 mM HEPES [pH 7.4], 150 mM NaCl, 3 mM EDTA, and 0.005% surfactant P20) at 25° C. All chemicals are obtained from Biacore® AB (Uppsala, Sweden) or otherwise from a different source as described in the text. For example, approximately 5000 RU of goat anti-mouse IgG, (Fcγ), fragment specific polyclonal antibody (Pierce Biotechnology Inc, Rockford, Ill.) diluted in 10 mM sodium acetate (pH 4.5) is directly immobilized across a CM5 research grade biosensor chip using a standard amine coupling kit according to manufacturer's instructions and procedures at 25 μg/ml. Unreacted moieties on the biosensor surface are blocked with ethanolamine. Modified carboxymethyl dextran surface in flowcell 2 and 4 is used as a reaction surface. Unmodified carboxymethyl dextran without goat anti-mouse IgG in flow cell 1 and 3 is used as the reference surface. For kinetic analysis, rate equations derived from the 1:1 Langmuir binding model are fitted simultaneously to association and dissociation phases of all eight injections (using global fit analysis) with the use of Biaevaluation 4.0.1 software. Purified antibodies or DVD-Ig are diluted in HEPES-buffered saline for capture across goat anti-mouse IgG specific reaction surfaces. […] The association and dissociation rate constants, kₒₙ (M⁻¹s⁻¹) and koff (s⁻¹) are determined under a continuous flow rate of 25 μl/min. […] The equilibrium dissociation constant (M) of the reaction between antibodies or DVD-Igs and the target antigen is then calculated from the kinetic rate constants by the following formula: KD=koff/kₒₙ. Binding is recorded as a function of time and kinetic rate constants are calculated.

Recombinant Human IL-13 [3] = target: T1, Recombinant Human IL-13; assay: cell-based or functional assay

T1 sequence (P35225 35-146 limits assumed): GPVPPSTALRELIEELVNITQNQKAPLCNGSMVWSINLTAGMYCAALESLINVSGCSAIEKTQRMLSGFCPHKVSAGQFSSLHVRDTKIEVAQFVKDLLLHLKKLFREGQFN

EC50 (Recombinant Human IL-13 [1]): 5570 pM
Kd (Recombinant Human IL-13 [2]): 133 pM
koff (Recombinant Human IL-13 [2]): 0.000177 s⁻¹
kon (Recombinant Human IL-13 [2]): 1.33e+06 M⁻¹ s⁻¹
IL-13 Neutralization Assay EC50 (A549 cells, hTARC) (Recombinant Human IL-13 [3]): 200 pM
B1: DVD286 (bispecific antibody, human IgG1, kappa)
heavy: EVTLRESGPGLVKPTQTLTLTCTLYGFSLSTSDMGVDWIRQPPGKGLEWLAHIWWDDVKRYNPALKSRLTISKDTSKNQVVLKLTSVDPVDTATYYCARTVSSGYIYYAMDYWGQGTLVTVSSASTKGPQVQLQQSGAELMKPGASVKLSCKATGYTFTGSWIEWIKQRPGHGLEWIGQILPGSGSAYYNEKFKGKATFTADTSSKTVYIQLISLTTEDSAIYYCAREDNYGSSSLAYWGQGTLLTVSA[left out - human IgG1 constant region]
light: DIQMTQSPSSLSASVGDRVTISCRASQDIRNYLNWYQQKPGKAPKLLIFYTSKLHSGVPSRFSGSGSGTDYTLTISSLQPEDIATYYCQQGLTPPLTFGGGTKVEIKRTVAAPDILLTQSPAILSVSPGERVSFS[left out - about 80 residues][left out - about 120 residues]
notes: outer AB051, inner AB056; vectors V1, V2
